± gives the standard deviation of the averaged measurements. Some of the results follow.
Tested on: PfAP2-G AP2 domain (GST-tagged)
Assay: gcPBM binding intensity (ln(normalized median fluorescence intensity)); higher = stronger DNA binding
In short: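 After 1 h on an Agilent 4 × 180k array of primer-extended double-stranded 36-bp intergenic genomic probes and negative controls, bound GST-tagged P. falciparum DNA-binding domains were detected with Alexa488 anti-GST antibody and scanned at 488 nm. The domains had been expressed in E. coli, and binding took place in 1× PBS with 1% milk, 0.2 mg/ml BSA, 0.5% salmon testes DNA and 0.03% Triton X-100. Binding intensity is the highest Masliner-normalised natural-log median intensity across replicate spots of either probe orientation.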

Row | Sequence | gcPBM binding intensity (ln)
1 | ATACTAAAAATGAATGTACACATATATATATATATA [TGCATGCA_negctrl_site209] | 11.3 ± 0.77
2 | ATATATCTTTATATAGTGCATTAAATATGTTGTAAT [GTGCAC_site9953] | 9.82 ± 0.13
3 | TATCATACAATATTCACACAAATAAATTGACATATT [CACACA_site5891] | 9.64 ± 0.014
4 | ACAAAAAAAAAAAAAAAAAGAAGAATATATCTATAT [CACACA_negctrl_site759] | 9.33 ± 0.21
5 | AAAAAGGAAATAATAACACACATTAGTAATTATAAA [CACACA_site7573] | 9.715 ± 0.064
6 | TATTAAAAAAATATTTGTACTTAAAATTTATTATAT [XGTACX_site1467] | 11 ± 0.67
7 | TATTTTCTTTAATTAATTATTGGTCTGAATGGGGTT [CACACA_negctrl_site418] | 10.2 ± 0.38
8 | CACAGACACGGACACACACACACAAAAAAAAAAAGA [CACACA_site4436] | 11.4 ± 1.1
9 | TTTATTGATAATATATATATATATATATATATATAT [GTGCAC_negctrl_site552] | 9.88 ± 0.64
10 | TCATATGTTAAACACACACACACACCGAAAAAAACA [CACACA_site9067] | 10.2 ± 0.3
11 | AAAAAATTAAAAAAAAAAAAATCATGAAAAAAACAA [CACACA_negctrl_site1673] | 9.56 ± 0.014
12 | AATATCTTAGTGGATACACACATATAAATGGGTATT [CACACA_site4426] | 10.3 ± 0.15
13 | TAGAAATAAGAAAAATGTACATATAATATTGAAAGT [XGTACX_site3043] | 11.2 ± 0.57
14 | TATATATATATAAGAAGTACAGAAAATTAGAAAAAA [XGTACX_site8773] | 11.7 ± 1.1
15 | TTTTACGTAATATTTATACACACGAACCTTATTAAT [CACACA_site2300] | 10.3 ± 0.17
16 | CCTAAATAAATGGACACACACATATATATATATATA [CACACA_site1439] | 10.9 ± 0.65
17 | CTTATATTAAGTATTACACACATATATATAAATGCA [CACACA_site4581] | 10 ± 0.18
18 | AGTAGTCTGGAGAAAAGTACATAGTATCTGGTAGCT [XGTACX_site2027] | 11.2 ± 0.7
19 | AGTCTATAGTAATTTACACACAAAAAAATATCAGGA [CACACA_site7620] | 10.04 ± 0.049
20 | GGCATATATACATATGGTACACATTTATTAATACCG [XGTACX_site2710] | 11.1 ± 0.81
21 | CACATACATATATATACACACAAATATATATACGCA [CACACA_site791] | 10.1 ± 0.22
22 | CAGCATGGTATACCTATAAAATATATATACTAACAT [TGCATGCA_negctrl_site51] | 10.2 ± 0.23

Row | Sequence | gcPBM binding intensity (ln)
23 | ATGTTACACAGACACACACACATAAAAAAACAAAAA [CACACA_site7516] | 10.3 ± 0.43
24 | AGGATATAAAGTTGTGCATGTCAAGTGCACCGTATT [TGCATGCA_site451] | 10.5 ± 0.25
25 | AGAAAAATCTAAATTCGTACATAACGTTTAAACATA [XGTACX_site2511] | 10.9 ± 0.69
26 | GATGTGTATATTAAATGTACGAACAGTTGAGGCGAA [XGTACX_site7853] | 10.9 ± 0.44
27 | ATAAATTGAAGTAAATTTGACCTTTTTTTTTTTTTT [GTGCAC_negctrl_site354] | 10.2 ± 0.21
28 | ATAATAATATGTGGGTGTACATATACACATATATAT [XGTACX_site4356] | 11.3 ± 0.71
29 | GTTTTATTCCATTATTGTACTTAATATAAAGAAACT [XGTACX_site3054] | 11.3 ± 0.96
30 | AGAACATGCAAACATGCACACAGAAAAAAAAAATAT [CACACA_site8442] | 10.1 ± 0.23
31 | TGCTTAGCACACTATCTACTTCCTTTGTTTCATAAA [GTGCAC_negctrl_site495] | 10.1 ± 0.11
32 | TTAGAAAGAATGTATTGTACATATATATTATATATA [XGTACX_site7045] | 10.8 ± 0.57
33 | ATATGTTTATTTATTTGTACTTATCATATAATAACA [XGTACX_site5486] | 11.2 ± 0.76
34 | TGTATATTTTAGTGATGTACTAATATTATTACTAAT [XGTACX_site3952] | 11 ± 0.76
35 | TTCATTTATATAATCACACATTTTATCATCTATGTT [CACACA_site4327] | 10.1 ± 0.16
36 | AAAATTTAGCAAAGGTGTACAAAAGATAATTAGAGT [XGTACX_site3467] | 11.4 ± 0.78
37 | TTTTTTAAATATATTTGTACATATGAAATAAAGATA [XGTACX_site3841] | 10.9 ± 0.66
38 | AAAATTATTATGAAAAGTACAAATATGTAAACATAC [XGTACX_site5517] | 11.1 ± 0.76
39 | ATCGTTATATAATGTTGTACTTGTTATATATATATA [XGTACX_site7582] | 11.4 ± 0.84
40 | GCATGCACGGAAAAAAGTACATATATAAATTTGGTT [XGTACX_site3393] | 11.6 ± 1.2
41 | GGTTCTAAAAAGGGAAGTACATGGAAAAATATAAAT [XGTACX_site4639] | 11.6 ± 1.1
42 | TTTTTCACATCTATAAATCATCTAATCAATATTTTT [GTGCAC_negctrl_site444] | 9.675 ± 0.064
43 | ATTCTAATTAGTAAAGTGCAGATAAAATGATGCCCT [GTGCAC_site9578] | 10.1 ± 0.17
44 | AATATATTTTGATATGAACAATTAATAATTTCAAAT [GTGCAC_negctrl_site170] | 9.825 ± 0.049

From the supplement of paper PMC11417369
